This series has as its system ATP. Put plainly: switch fluorescence ratio, 500 uM ATP over buffer (Cy3 cluster intensity, sum of 5 cycles each) (fold (ratio)); higher = stronger signal-on switching upon ATP binding; sequences stand for … in TCGTCGGCAGCGTCAGATGTGTATAAGAGACAGTTTTTTTTTTTTTTTTTTTTTTTTT…TC. To be noted: aptamer strand: ATP DNA aptamer (quencher-CACCTGGGGGAGTATTGCGGAGGAAGG + anchor), 100 nM annealed; ATP concentration: 500 uM; one replicate. The gist of the method: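 The fluorescence ratio divides summed target-cycle Cy3 intensity by summed buffer-cycle Cy3 intensity for each cluster and is averaged per switch-domain sequence. Cy3-labelled switching-strand clusters on a modified Illumina MiSeq flow-cell were annealed to 100 nM quencher-labelled ATP aptamer, then imaged in selection buffer and again after 15 min with 500 uM ATP at 22 °C. Five such cycles were run, with NaOH stripping and re-annealing between them, and clusters outside 100-1000 RFU were excluded.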

From the supplement of paper PMC10126150 come the findings set out here.

Values marked as one replicate rest on one cluster of the flow cell; about a third of the high ones do not repeat.
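Note: ATP exposure 15 min at 22 °C before imaging.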

As for CAGCAATTTT, the switch fluorescence ratio was 1.54.

TTCTTTGAGG: the switch fluorescence ratio is 1.04.

GCCTGAACCG: the switch fluorescence ratio worked out at 1.22.

In the case of GAGGCTTAGA, the switch fluorescence ratio turned out to be 1.04.

In the case of ATTTCTGGG, the switch fluorescence ratio amounted to 0.991.

As for CTTCTCAAGG, the switch fluorescence ratio worked out at 1.

As to AGCCTTGTGG, the switch fluorescence ratio came to 0.991.

On to TACAAGGAAA, for which the switch fluorescence ratio was found to be 1.03.

Consider CATAGACGGA, for which the switch fluorescence ratio turned out to be 1.04.

Turning to TGATGATACA, the switch fluorescence ratio was 0.999.

As for TACACGAAAT, the switch fluorescence ratio was determined as 1.12.

Turning to ACGAACCCCC, the switch fluorescence ratio was determined as 1.15.

Regarding GGAAGCAATG, the switch fluorescence ratio is 1.95.

GGGCCGTGCT: the switch fluorescence ratio was 1.02.

Take CAAACCTGTG: the switch fluorescence ratio was determined as 1.09.

On to AACGGGGAGG, for which the switch fluorescence ratio is 1.03.

Consider AAAGTATGTT, for which the switch fluorescence ratio worked out at 0.999.

As for CACTATTGAA, the switch fluorescence ratio came out at 0.985.

As for GTCGCTTAGC, the switch fluorescence ratio worked out at 1.08.

As for TTTGCATGGA, the switch fluorescence ratio came out at 1.03.

As for CCCAGTAGC, the switch fluorescence ratio was 1.14.

AATGTAATCG: the switch fluorescence ratio was 0.992.

As for TAGGGATGAA, the switch fluorescence ratio came to 0.952.

In the case of ATCCCTTCTT, the switch fluorescence ratio came out at 1.06.

In the case of CTTAGTGGT, the switch fluorescence ratio worked out at 1.01.

With CTGCCTTGTG, the switch fluorescence ratio stood at 1.03.

Take GCATCGAACG: the switch fluorescence ratio stood at 1.03.

With CCGGAAAGCC, the switch fluorescence ratio came to 1.02.

With ACTAGGTTCC, the switch fluorescence ratio came out at 1.16.

For the sequence CAGTGCTTT, the switch fluorescence ratio was found to be 0.962.

Consider ACAGGGCGAT, for which the switch fluorescence ratio was determined as 0.932.

Take TCGCTGACGG: the switch fluorescence ratio worked out at 0.992.

As for GACATTGTGC, the switch fluorescence ratio came to 1.03.

For the sequence TTGCGGTCAC, the switch fluorescence ratio stood at 1.

With CTGATATGGG, the switch fluorescence ratio is 1.

In the case of GGGAATTCGC, the switch fluorescence ratio is 0.99.

As for CATGGGTGGT, the switch fluorescence ratio turned out to be 1.06.

Turning to CAGCTGGGAA, the switch fluorescence ratio came to 0.993.

On to ATGGACGCTT, for which the switch fluorescence ratio was found to be 1.07.

AAGCCCTAAG: the switch fluorescence ratio was 0.997.

Turning to ACGCCCGTAC, the switch fluorescence ratio is 1.7.

On to CGCGATTCAG, for which the switch fluorescence ratio stood at 1.13.

TATTAACAAT: the switch fluorescence ratio was 1.02.

Regarding ACCTGAAGTT, the switch fluorescence ratio worked out at 1.05.

For the sequence ACTTAGTTGT, the switch fluorescence ratio was found to be 1.07.

For the sequence CTAGTAGAC, the switch fluorescence ratio was 1.03.

As to CAAAACCATG, the switch fluorescence ratio worked out at 0.996.

On to AGACAGTGTT, for which the switch fluorescence ratio came to 0.998.

As to ACTCGAACGA, the switch fluorescence ratio turned out to be 1.07.

Take TCACCCGCCG: the switch fluorescence ratio worked out at 1.03.

On to CCGTCAATTG, for which the switch fluorescence ratio is 2.04.

Turning to GCAATCTGCA, the switch fluorescence ratio worked out at 1.02.

For the sequence CTCACTACTG, the switch fluorescence ratio is 1.03.

Turning to AAAATTTGAT, the switch fluorescence ratio turned out to be 1.02.

Regarding TAAGTGGGCA, the switch fluorescence ratio is 1.02.

For the sequence GTCCCAATGT, the switch fluorescence ratio turned out to be 1.09.

As to CGATTGACGA, the switch fluorescence ratio amounted to 1.01.

As to GTAATGAAGA, the switch fluorescence ratio worked out at 0.983.

TGACTTGTTG: the switch fluorescence ratio turned out to be 0.96.

With CCTTGGCACT, the switch fluorescence ratio was 2.38.

Regarding AGCTGCGACA, the switch fluorescence ratio was 1.02.

Turning to GTAAAACCCT, the switch fluorescence ratio amounted to 1.12.

With TAGGTTACAC, the switch fluorescence ratio was determined as 1.02.

Take CCGAGGTGCG: the switch fluorescence ratio was found to be 0.999.

For the sequence CCCCTATCAG, the switch fluorescence ratio came out at 0.994.

With TTCGTGTTCC, the switch fluorescence ratio amounted to 1.04.

As for ACCTGTCCCA, the switch fluorescence ratio amounted to 1.02.

CTTATACCCC: the switch fluorescence ratio is 1.13.

Turning to GTTGGCTAGG, the switch fluorescence ratio turned out to be 1.07.

On to TTGGTAACCA, for which the switch fluorescence ratio was 1.03.

As to ATAATGGTT, the switch fluorescence ratio came to 1.02.

On to GACTTCGGGG, for which the switch fluorescence ratio turned out to be 0.997.

On to TGGCACCACT, for which the switch fluorescence ratio is 1.03.

CTATCTGGAA: the switch fluorescence ratio amounted to 1.

In the case of GGCGTTGTAG, the switch fluorescence ratio was determined as 1.06.

Regarding GTTGTCTAT, the switch fluorescence ratio came out at 1.01.

As for AACTCTACGT, the switch fluorescence ratio came out at 1.22.

Consider GGAAGTGATA, for which the switch fluorescence ratio came to 1.

In the case of GCATCACATT, the switch fluorescence ratio was 0.986.

On to GAGGTCGGGA, for which the switch fluorescence ratio is 0.995.

For GGTCGATTGA, the switch fluorescence ratio was determined as 0.987.

For the sequence TCATGTTAGA, the switch fluorescence ratio is 1.01.

For AAGGAGTACC, the switch fluorescence ratio was determined as 0.992.

Regarding GCTACTCGGT, the switch fluorescence ratio amounted to 1.03.

As to CAGGAGGCGT, the switch fluorescence ratio was 0.971.

With ATGTGGAGCA, the switch fluorescence ratio turned out to be 0.994.

Consider GTGCGCCGTC, for which the switch fluorescence ratio worked out at 1.04.

In the case of CCATTTGTTA, the switch fluorescence ratio was 1.01.

For the sequence AGTTCCGAAT, the switch fluorescence ratio was determined as 1.03.

AGTCAATTGG: the switch fluorescence ratio amounted to 0.949.

With TACGGGTGAA, the switch fluorescence ratio worked out at 1.06.

Take AGAACTCGCT: the switch fluorescence ratio was 1.

As to ATGTCCTGG, the switch fluorescence ratio worked out at 0.973.

For the sequence CGCCCAGAT, the switch fluorescence ratio amounted to 1.03.

Regarding TAAGAAGCAG, the switch fluorescence ratio came to 0.972.

As for AAATTTCAAC, the switch fluorescence ratio was 1.

For GGAAACCCCA, the switch fluorescence ratio is 1.05.

As for TATAACAATT, the switch fluorescence ratio worked out at 0.98.

As for CCCTCCTCGG, the switch fluorescence ratio came to 1.37.

AACTGTACGG: the switch fluorescence ratio was 1.27.

Turning to TACGTAATC, the switch fluorescence ratio stood at 1.75.

Regarding AGAAATATCC, the switch fluorescence ratio was 1.07.

TAAACTTACC: the switch fluorescence ratio was determined as 1.06.

With TGGGACACCT, the switch fluorescence ratio was 1.08.

As to AGATTATGCT, the switch fluorescence ratio came out at 1.02.

Consider AAATGCCACT, for which the switch fluorescence ratio worked out at 0.925.

Take TAGTGCTAAG: the switch fluorescence ratio worked out at 1.01.

With CTTCTATACT, the switch fluorescence ratio was determined as 1.2.

Turning to TTGTGCAGGT, the switch fluorescence ratio turned out to be 1.03.

Turning to GCGACTGC, the switch fluorescence ratio was 1.07.

Consider GCTCGCAAAT, for which the switch fluorescence ratio is 1.25.

As for AAGCCACGAG, the switch fluorescence ratio came out at 1.09.

Turning to TCTCTTGGTT, the switch fluorescence ratio is 1.03.

In the case of GAAGTGACGG, the switch fluorescence ratio stood at 0.946.

In the case of CGGAAACTAA, the switch fluorescence ratio worked out at 0.988.

As to GCACTCCGGG, the switch fluorescence ratio came to 1.06.

For AGCAAGACGC, the switch fluorescence ratio came out at 3.4.

Turning to ATTGCAGAT, the switch fluorescence ratio is 0.998.

On to ATCGAGTCGC, for which the switch fluorescence ratio is 1.

TAACGGGGT: the switch fluorescence ratio was found to be 0.98.
